Experimental data taken from patent publication US20220089709A1 (HEFEI LIFEON PHARMACEUTICAL, published 2022).

Assays:
[1] = biological target: T1, FN-789 (containing FN-7, FN-8 and FN-9) (human, UniProt P02751-1 1173-1446, limits assumed); assay: ELISA, antigen coated, HRP-labelled rabbit anti-human IgG
T1 construct: domain: FN-7, FN-8 and FN-9; Expressed and purified 'in the same manner' as ED-B (E. coli, C-terminal six-histidine tag implied)

[2] = biological target: T2, FN-789 expressed across the membrane of CHO-K1 cells (human, UniProt P02751-1 1173-1446); assay: immunofluorescence microscopy, FITC-labelled DE2-Fc on CHO-789 cells
T2 construct: domain: FN-7, FN-8 and FN-9; ED-B negative; also called CHO-789 cells

B1: DE2-Fc (Fc fusion)
chain: EVQLLESGGGLVQPGGSLRLSCAASGFTFSSYAMSWVRQAPGKGLEWVSRISPSGSSTYYADSVKGRFTISRDNSKNTLYLQMNSLRAEDTAVYYCARRMSYFDYWGQGTLVTVSSGGGGSGGGGSGGGGSSQSALTQPASVSGSPGQSITISCSGDSLGIFRSGMVSWYQQHPGKAPKLMIYLPTSRPSGVSNRFSGSKSGNTASLTISGLQAEDEADYYCQSWDGRQPVFGGGTKLTVLGAAA[omitted - human IgG1 Fc]
notes: also called DE2 antibody; DE2 single-chain antibody
binding result [1]: no binding
binding result [2]: no binding (tested: 50 ng/µl)
